Experimental findings from PubChem BioAssay AID1508642 (National Center for Advancing Translational Sciences (NCATS), 2021) are described below.

Among all 43,000 compounds or so, about 200 (0.47%) were called active. Roughly 12% stayed inconclusive and do not appear here. Calls come from the whole dose curve; as a rule, active = well fitted cell-killing curve with a large enough effect; inconclusive = small, poorly fitted or top-dose-only effect, or effect the other way; inactive = flat fitted curve, though single readings scatter. This is one part of the list.
% is set by controls: 0 for no effect and ±100 for the full control effect.

The test can be described thus: Cell viability qHTS assay in S16 Pmp22-F2sN cells. Note: nearly all actives have a fitted effect of over 65% in size. To be noted: S16 Pmp22-F2sN Schwann cells (luciferase reporters placed in the Pmp22 gene) viability, CellTiter-Glo, 24 h; series mostly up to 57.5 µM; activity change, negative = cytotoxicity: at the top concentration. In outline: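 S16 Schwann cells carrying the Pmp22-F2sN reporter, seeded in 1536-well format, were exposed to library compounds for 24 h at 37C. Viability was read as CellTiter-Glo luminescence after 15 min at room temperature.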
(In general: qHTS replaces the single test concentration by a dilution series.)
With `CCOC(=O)C1CCN(c2nc3c(S(=O)(=O)c4ccc(Br)cc4)nnn3c3ccsc23)CC1`, the “activity change, negative = cytotoxicity” value was inactive: 16.5%. Then `FC(F)(F)c1cccc(-n2cc(-c3ccccc3)c3c(N4CCCCC4)ncnc32)c1`, with inactive: 19.5%; and `COc1ccc(CCNC(=O)Cn2cc(C(=O)c3ccc(Cl)cc3)c(=O)c3ccc(C)nc32)cc1OC`, with inactive: -10.3%; and `CCCN(CCC)CCNC(=O)Cn1cnc2sc(C)c(S(=O)(=O)N3CCC(C)CC3)c2c1=O`, with inactive: 3.73%. The result for `Cc1ccc(N2CC(C(=O)NCCS(=O)(=O)N3CCN(c4ccccc4)CC3)CC2=O)cc1` (stereo not drawn) reads inactive: 5.3%. The result for `COCCN1C(=O)c2oc3cc(C)cc(C)c3c(=O)c2C1c1cccc(O)c1` (stereo not drawn) reads inactive: 4.45%; that for `COc1ccc(CNC(=O)c2cc3c(-c4ccc(Cl)cc4)nn(C)c3s2)cc1`, inactive: 11.2%.

Consider `COc1ccc(S(=O)(=O)N(CCc2ccccc2)CC(=O)NCc2ccccc2)cc1`, for which the “activity change, negative = cytotoxicity” value is inactive: 6.21%. Then `CCOC(=O)c1cccc(NC(=O)Cn2nc3c(cc2=O)CCCC3)c1`, with inactive: 6.43%. As for `COc1ccccc1N1CCN(C(=O)c2cc3c(=O)n(C)c4ccccc4c3s2)CC1`, the “activity change, negative = cytotoxicity” value was inactive: 1.32%. The result for `COc1ccc(-c2nc(SCC(=O)NC3CCCC3)c(-c3ccc(OC)cc3)[nH]2)cc1` reads inactive: 6.1%. Then `COc1ccc(CNC(=O)Cn2nc(C)n3cccc3c2=O)cc1`, with inactive: -1.92%. The result for `CC1CCN(C(=O)c2ccc3c(c2)N(Cc2ccccc2F)C(=O)c2ccccc2S3(=O)=O)CC1` reads inactive: 12%. On to `Cc1ccc(NC(=O)C(=O)NCC(c2cccnc2)N2CCOCC2)cc1` (stereo not drawn), for which the “activity change, negative = cytotoxicity” value was inactive: 9.39%. The result for `Cc1c(Cl)cccc1-n1ncc(C(=O)N2CCN(C)CC2)c1C1CCN(C(=O)OC(C)(C)C)CC1` reads inactive: 3.11%.

As to `CC(C)Cn1c(=O)c2ccccc2n2c(CCC(=O)N3CCN(c4cccc(Cl)c4)CC3)nnc12`, the “activity change, negative = cytotoxicity” value was inactive: -7.7%.

For the molecule `CC(=O)c1ccc(N2CCN(c3ncnc4c3c(-c3ccccc3)cn4-c3ccc(C)c(Cl)c3)CC2)cc1`, the “activity change, negative = cytotoxicity” value is inactive: 0.445%. For `COCCCN(Cc1ccco1)C(=O)c1cc2c(s1)-c1ccccc1OC2`, the “activity change, negative = cytotoxicity” value was inactive: -0.876%. The result for `COc1ccccc1-c1noc(-c2ccc(N3CCOCC3)c([N+](=O)[O-])c2)n1` reads inactive: -9.25%; that for `Cc1cccc(C)c1NC(=O)CN1C(=O)CCSc2ccc(S(=O)(=O)N3CCCC3)cc21`, inactive: 5.26%. Take `COc1ccc(N(CC(=O)Nc2ccc(C)c(C)c2)S(=O)(=O)c2ccc(C)cc2)cc1OC`: the “activity change, negative = cytotoxicity” value was inactive: -3.36%. The result for `Cc1ccc(C)c(N2C(=O)N(Cc3c(F)cccc3Cl)c3ccccc3S2(=O)=O)c1` reads inactive: -12.4%; that for `COC(=O)c1cc(NC(=O)Nc2ccc3snnc3c2)cc(C(=O)OC)c1`, inactive: 0.268%.

Take `O=C(COc1ccccc1)Nc1sc2c(c1C(=O)Nc1ccccc1Cl)CCCCC2`: the “activity change, negative = cytotoxicity” value is inactive: -9.46%. With `CCN(Cc1nc(-c2cccc(C)c2)no1)S(=O)(=O)c1ccc(C)cc1`, the “activity change, negative = cytotoxicity” value was inactive: -15.3%. On to `CC(=O)OCc1cc(=O)n2nc(C3CCCCC3)sc2n1`, for which the “activity change, negative = cytotoxicity” value was inactive: 0.571%.

Consider `Cc1ccccc1-c1noc(-c2ccc(N3CCN(c4ccccc4)CC3)c([N+](=O)[O-])c2)n1`, for which the “activity change, negative = cytotoxicity” value was inactive: 12%. Then `COc1ccc(N2CC(NC(=O)COc3ccccc3F)CC2=O)cc1OC` (stereo not drawn), with inactive: -8.06%; and `CC(C)CCNC(=O)CN1C(=O)CCn2nc(-c3cn(C)c4ccccc34)cc21`, with inactive: 9.57%. For `COc1ccc(C)c2sc(NC(=O)c3ccc(S(=O)(=O)N4CCCCC4)cc3)nc12`, the “activity change, negative = cytotoxicity” value is inactive: 16.4%. Consider `Cc1cc(C)cc(Nc2ncnc3c2nc2n3CCCC2)c1`, for which the “activity change, negative = cytotoxicity” value was inactive: 6.74%. Then `CCOc1ccc(CCNC(=O)c2ccc(-c3nc(CSc4ccc(C)cc4)c(C)o3)cc2)cc1`, with inactive: 0.111%. Then `Cc1nc(S(=O)(=O)N2CCN(c3ccc(Cl)cc3)CC2)cn1C`, with inactive: 2.19%; and `Cc1nnc(SCc2cc(=O)c3ccccc3[nH]2)s1`, with inactive: -5.74%; and `CCOc1ccc(S(=O)(=O)NCCc2csc(-c3ccc(Cl)cc3)n2)cc1`, with inactive: -5.37%. In the case of `CCCCC1CCC(C(=O)N2CC(=O)Nc3ccc(F)cc3C2c2ccc(F)cc2)CC1` (stereo not drawn), the “activity change, negative = cytotoxicity” value was inactive: -25.4%.

For `COc1ccc(C2CC(=O)Nc3c2c(=O)nc2c(C)cccn32)cc1OC` (stereo not drawn), the “activity change, negative = cytotoxicity” value was inactive: -1.27%. In the case of `COc1ccc(OCc2ccc(-c3nc(C#N)c(N4CCN(C)CC4)o3)o2)cc1`, the “activity change, negative = cytotoxicity” value is inactive: 5.29%. As to `CCC1CN(C(=O)NCc2cccc(OC)c2)c2cc(Cl)ccc2O1` (stereo not drawn), the “activity change, negative = cytotoxicity” value was inactive: -13.4%. Then `Cc1ccccc1C(=O)c1cccn1CC(=O)NCc1ccc(Cl)cc1`, with inactive: 3.75%; and `COc1ccccc1CNC(=O)Cc1c(C)c2c(cc(C)c3c(C)c(C)oc32)oc1=O`, with inactive: 14.7%. The result for `Cc1ccc2c(CN3CCN(Cc4ccccc4Cl)CC3)cc(=O)oc2c1` reads inactive: 7.54%. The result for `COc1ccc(CCNC(=O)CCCn2c(=O)c3cccn3c3cccnc32)cc1OC` reads inactive: 8.48%. Take `COc1ccc(NC(=O)CSc2cn(CC(=O)N3CCCCC3)c3ccccc23)c(OC)c1`: the “activity change, negative = cytotoxicity” value is inactive: -15.4%. Then `CCCC(=O)Nc1ccc2c(c1)nc(CN1CCN(C(=O)OCC)CC1)n2C(C)C`, with inactive: -5.68%; and `COc1ccc(NC(=O)c2ccc(CN3C(=O)CCn4nc(C)cc43)cc2)c(OC)c1`, with inactive: -11.9%.

For `CCn1c2ccccc2c2nnc(N3CCN(c4ccc(F)cc4)CC3)nc21`, the “activity change, negative = cytotoxicity” value was inactive: 16.2%.

As to `CCOC(=O)c1c(NC(=O)COc2cccc(C(F)(F)F)c2)sc2c1CCC(C)C2` (stereo not drawn), the “activity change, negative = cytotoxicity” value was inactive: -2.83%.

Consider `CCOC(=O)c1cc2c(=O)n3ccccc3nc2n(CC2CCCO2)c1=NC(=O)c1ccc(C(C)(C)C)cc1` (stereo not drawn), for which the “activity change, negative = cytotoxicity” value was inactive: -6.57%.

With `Cc1nc2sc(C(=O)N(C)Cc3ccccc3)c(NC(=O)c3ccccc3)c2c(C)c1Cl`, the “activity change, negative = cytotoxicity” value was inactive: 6.14%.

As to `Cc1ccc(-c2cc(NC(=O)c3ccccc3Cl)on2)cc1`, the “activity change, negative = cytotoxicity” value was inactive: -0.179%. For the molecule `CCOC(=O)c1c(S(=O)(=O)N2CCCC(C(=O)Nc3ccc(OCC)cc3)C2)c(C)n(C)c1C` (stereo not drawn), the “activity change, negative = cytotoxicity” value was inactive: -2.1%. Then `Cc1ccc(S(=O)(=O)c2cn(Cc3cccc(F)c3)c3cc(N4CCCC4)c(F)cc3c2=O)cc1`, with inactive: 3.59%.

Take `COc1ccc(C)cc1Nc1nc2c(S(=O)(=O)c3cccc(Cl)c3)nnn2c2ccsc12`: the “activity change, negative = cytotoxicity” value is inactive: 3.87%. With `CCOc1ccc(NC(=O)c2cc3sc(Cl)cc3n2CC)cc1`, the “activity change, negative = cytotoxicity” value was inactive: -28.2%. Regarding `Cc1cc(C)n(C(C)CC(=O)NCc2ccccc2C)n1` (stereo not drawn), the “activity change, negative = cytotoxicity” value is inactive: -9.02%.

With `CCCCN(CCCC)c1ncnc2c1cnn2-c1cccc(C)c1`, the “activity change, negative = cytotoxicity” value was inactive: 20.8%. On to `COc1ccc(Br)cc1C(=O)Nc1ccc2oc(-c3cccnc3)nc2c1`, for which the “activity change, negative = cytotoxicity” value was inactive: 4.39%.

Regarding `CCN1CCN(CCCNC(=O)c2ccc3nc(Cc4ccc(OC)cc4)oc3c2)CC1`, the “activity change, negative = cytotoxicity” value is inactive: 6.66%. On to `CCOc1cc(CNS(=O)(=O)c2ccc3c(c2)CC(=O)N3C)cc(OCC)c1OCC`, for which the “activity change, negative = cytotoxicity” value was inactive: -2.87%. The result for `Cc1cccc(NC(=O)CN(c2ccc(C(C)C)cc2)S(=O)(=O)c2c(C)nn(C)c2C)c1C` reads inactive: -8.49%. Then `CCOC(=O)C1CCN(S(=O)(=O)c2cc(-c3onc(C)c3C)ccc2C)CC1`, with inactive: -8.82%; and `Cc1ccc(-n2ncc3c(N4CCN(c5ccccc5)CC4)ncnc32)cc1C`, with inactive: -3.83%; and `COC(=O)c1c(NC(=O)c2cc(=O)c3c(C)cc(C)cc3o2)sc2c1CCCC2`, with inactive: 5.69%.

As for `COc1ccc(N2C(=O)CSC23C(=O)N(C)c2ccccc23)cc1Cl` (stereo not drawn), the “activity change, negative = cytotoxicity” value is inactive: -1.53%. Then `CCc1ccccc1Nc1cc(C(=O)NCc2ccc(C)cc2)c2ccccc2n1`, with inactive: -18.8%; and `CCOC(=O)N1CCN(C(=O)c2ccc3c(c2)N(Cc2ccccc2F)C(=O)c2ccccc2S3=O)CC1` (stereo not drawn), with inactive: 0.476%; and `O=C(c1c2c(nc3ccccc13)C(=O)N(C1CCCCC1)C2)N1CCN(c2ccc(F)cc2)CC1`, with inactive: 4.1%.

In the case of `CC(=O)N1CCCc2cc(S(=O)(=O)N3CCC(C(=O)N(Cc4ccccc4)C(C)C)CC3)ccc21`, the “activity change, negative = cytotoxicity” value was inactive: -22.6%. As to `COCCn1c(C)cc(O)c(C(c2ccccc2)N2CCC(C)CC2)c1=O` (stereo not drawn), the “activity change, negative = cytotoxicity” value is inactive: -7.08%. The result for `Cc1cc(C)c2c(n1)nn1c(C)c(CCC(=O)Nc3cccc(C)c3C)c(C)nc21` reads inactive: -3.97%. Then `Cc1ccc(Cl)cc1N1CCN(C(=O)C2CCN(S(=O)(=O)c3cn(C)cn3)CC2)CC1`, with inactive: -3.49%; and `Cc1cccc(N2CCN(CCCNC(=O)Cn3ncc4c([nH]c5ccccc54)c3=O)CC2C)c1` (stereo not drawn), with inactive: 2.77%; and `CCc1ccc(S(=O)(=O)Nc2ccc3c(c2)sc(=O)n3C)cc1`, with inactive: -1.67%. The result for `Cc1ccc(Cl)cc1NC(=O)CN1C=NS(=O)(=O)c2ccccc21` reads inactive: -1.58%. For the molecule `Cc1cccc(Cn2c(=O)n(-c3cc(C)cc(C)c3)c(=O)c3oc4ccccc4c32)c1`, the “activity change, negative = cytotoxicity” value is inactive: 10.4%. Then `CCc1nn(CCCC(=O)NCc2ccccc2OC)c(=O)c2cc3occc3n12`, with inactive: 6.68%. Then `O=C(NCCS(=O)(=O)N1CCN(c2cccc(Cl)c2)CC1)C(c1ccccc1)c1ccccc1`, with inactive: 2.9%; and `CCOCCCn1c(=N)c(C(=O)NC2CCCCC2)cc2c(=O)n3ccccc3nc21`, with inactive: 8.09%. The result for `COc1ccc(N(C)C(=O)Cn2cnc3sc(C)c(S(=O)(=O)N4CCN(c5ncccn5)CC4)c3c2=O)cc1` reads inactive: 15.8%; that for `Cc1ccc(-c2nc3cccc(C)n3c2Nc2ccc3c(c2)OCCO3)cc1`, inactive: -20%. `COc1ccc(-c2c3c(nc4sc(C(=O)Nc5cccc(OC)c5)c(N)c24)CC(C)(C)CC3=O)cc1`: the “activity change, negative = cytotoxicity” value was inactive: 0.565%. Then `CCc1ccccc1NC(=O)Cn1c(=O)n(CCc2ccccc2)c(=O)c2sc3ccccc3c21`, with inactive: -9.73%; and `O=C(CSc1nc2ccccc2nc1Cc1ccccc1)N1CCc2ccccc21`, with inactive: 3.59%. The result for `Cc1cccc(-c2nc3c4ccccc4nc(N4CCN(c5cccc(Cl)c5)CC4)n3n2)c1` reads inactive: 11.3%.

As to `CCC(C)NC(=O)c1ccc(CNS(=O)(=O)c2ccc3c(c2)C(C)(C)C(=O)N3C)cc1` (stereo not drawn), the “activity change, negative = cytotoxicity” value is inactive: 2.02%.

Consider `Cc1cc(C)c2oc(-c3cccc(NC(=O)c4cccc(F)c4)c3C)nc2c1`, for which the “activity change, negative = cytotoxicity” value was inactive: 13.4%.

On to `COc1ccc(CCNC(=O)c2ccc(Cn3c(=O)c4cccn4c4cccnc43)cc2)cc1OC`, for which the “activity change, negative = cytotoxicity” value is inactive: 15.2%. The result for `Cc1cc(C(=O)N2CCN(c3ccccc3F)CC2)c2c(C)nn(-c3ccccc3)c2n1` reads inactive: -9.08%; that for `Cc1cc(C)n2nc(CNS(=O)(=O)c3cccc(Cl)c3)nc2n1`, inactive: -8.2%; that for `COCCNC(=O)c1c(NC(=O)c2cc(=O)c3cc(C)cc(C)c3o2)sc2c1CCCC2`, inactive: 8.27%. The result for `COc1ccc(C2CC(=O)c3cc(-c4nc(-c5cccc([N+](=O)[O-])c5)cs4)c(=O)n(-c4cccc(C)c4)c3C2)cc1` (stereo not drawn) reads inactive: -1.43%. The result for `Cc1ccc(NC(=O)CSc2nc3ccc(NC(=O)c4ccco4)cc3s2)cc1` reads inactive: 12.6%.
